Data: the supplement of paper PMC10126150
Sequences with one replicate were seen in a single cluster, so their values are uncertain.

Tested on: ATP
Assay: switch fluorescence ratio, 500 uM ATP over buffer (Cy3 cluster intensity, sum of 5 cycles each) (fold (ratio)); higher = stronger signal-on switching upon ATP binding; sequences stand for … in TCGTCGGCAGCGTCAGATGTGTATAAGAGACAGTTTTTTTTTTTTTTTTTTTTTTTTT…TC
Conditions: aptamer strand: ATP DNA aptamer (quencher-CACCTGGGGGAGTATTGCGGAGGAAGG + anchor), 100 nM annealed; ATP concentration: 500 uM; one replicate
Procedure, shortened: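 Clusters carrying Cy3-labelled switching strands on a modified Illumina MiSeq flow-cell were annealed to 100 nM quencher-labelled ATP aptamer and imaged in selection buffer. They were imaged again after 15 min with 500 uM ATP at 22 °C, over five buffer/ATP cycles with NaOH stripping and re-annealing in between. For each cluster, the fluorescence ratio is the summed Cy3 intensity of the target cycles divided by that of the buffer cycles, averaged per switch-domain sequence. Clusters outside 100-1000 RFU were left out.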
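Also: ATP exposure 15 min at 22 °C before imaging.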

Sequence | switch fluorescence ratio
TGGTAGAGGC | 0.999
CCTCGCCATT | 2.11
CTCGAGCCTA | 1.04
TTACCGTATT | 1.06
TTGGAACGG | 0.958
AACTGCTTA | 0.997
TATTACTGCT | 0.998
TACGATTTTG | 1.02
GATACTGCAC | 1.65
TGTAAACTCG | 0.956
AAGTTTGTCG | 0.925
CGTACTCAGG | 1.34
GGGGTCCGGG | 1
ACCCGGGCAC | 1.03
GGATCCTAGT | 1.05
AAATGTGAGC | 0.94
TAGGAAGTTA | 1.03
AGAGTAGTT | 1.03
CGATGTACGG | 1.02
CCCGTTTGCC | 0.888
AAGTGTATAG | 0.959
TGAGGAAAAA | 4.62
GTGGAAGGA | 0.969
GAATCTAGGT | 1.15
TAATAAGAGT | 0.992
CGCTTGATG | 1.02

Sequence | switch fluorescence ratio
AGCGGCCATG | 0.996
CGTTTCTCTT | 1
GGGAAGACCA | 1.06
GGCGTGTGAA | 0.99
AACACTATGC | 1.07
CAGTCGTAGA | 0.996
ATGCAGGCGC | 0.903
AAGCCTGTTC | 1.03
ATGGTTCCGC | 1.11
AATTGGTCGC | 0.958
ACAAGTCCTC | 1
AAACAGTACC | 1.34
GCGTACGATT | 1.01
CACCAATAAT | 1.09
TCCTTGTTTG | 1
TTGTGAGATC | 0.98
ACAATGGGGT | 1.01
AGAGATTAGA | 1.02
TAAAATACCC | 1.05
GCCAGATTAC | 1.06
AAAGCCCTGT | 0.982
CCTAGTAAAT | 1.05
TCGGAGATCA | 1.02
GAAAAACCGA | 1.1
TTCGGCCGAC | 0.99
CGGTTCTGAG | 1.04

Sequence | switch fluorescence ratio
TGTATGATTG | 0.957
TCGTGATTAC | 1.58
CATAGGTCCG | 0.984
GCCAAGGTTG | 1.01
TTCCGTTCCT | 1.09
GCGGTAAACG | 1.06
GAAATTTA | 0.981
AAACATATTG | 1.14
GCGGACGGC | 0.973
ACATAGATGA | 1.04
TTGAGTCACT | 0.952
AGCTGAAGAG | 1.02
TCAGTCGGT | 0.958
AAACCGATAC | 2.78
TTACTGACGG | 1.27
ACTCGGGTGC | 1.44
GCTGGTAAC | 1
TAAACTACG | 1.03
TCCAGAACAA | 1.28
GACGTATCGA | 1.01
AGTCGTATTG | 0.971
AGGCTCGCT | 0.982
TAGACATTCC | 1.68
ACTGATTGTT | 1
TAGTATCA | 1.01
GGCTATTTAC | 1.05

Sequence | switch fluorescence ratio
ATCTCCAGAT | 1.01
TTCCATTACG | 1.07
CTGATATGGA | 1.03
ATAATCGCAA | 3.83
AAGCGTGAAT | 1.02
ATTAATACGA | 1.03
GGTAATCGTA | 1.02
TTGGGGTACT | 0.987
CTCGACGGTA | 1.03
TAGTCCAGTG | 1.42
TTATCGACGA | 1.08
AAATTCCAAA | 1.01
TGAGGCGCGT | 1
GCAATTTTTC | 1.01
AGTAGGGGA | 1.13
CCAACGTTCA | 1.07
TCCGGCAGGA | 0.945
CACTCCAGGA | 1.07
CGGGAGCCTG | 0.984
TTGCGAGCTA | 1.06
CGATAACAGA | 0.975
GGGAGGCGCG | 1.04
GGGCAGGTG | 2.67
ATAGTTCATA | 1.01
CAGCATTTG | 1.02
GATCGGTATG | 0.986

Sequence | switch fluorescence ratio
GACATTGTCG | 1.01
TTGTGAGCTA | 1.02
GATACGGT | 1.03
ATTGGAGTGA | 0.966
ATATTTATAT | 1
GAGTCGTAAG | 1.02
TTACGCTAGG | 2.12
TTGAATTACC | 1.03
CTTCCTAGTG | 1.13
AATAACAGGG | 1.08
CGCGAAAAGG | 1.05
CAGGAATTTT | 1.03
GACGTAGGGA | 1.03
TATTAGCCCA | 1
CACGAGGGTG | 1.15
GCCCGAGTTC | 0.993
AAGCTCACGT | 1.04
ATTCCTTAAA | 0.99
TTTCGGGATC | 1.02
CTCAAGAGAG | 1.17
CAGAAGGTGG | 1
CTAGGTTGTA | 1.02
CACTCGATTG | 1
CTTTGGCTAG | 1.01
CTTGCGC | 1.02
TCGCTAGGGA | 0.96

Sequence | switch fluorescence ratio
ACCGATTTG | 0.991
TGGATGGGC | 1.03
ATAAGGGACT | 1.03
CAAATACAGC | 1.01
CTCCTGTAGC | 1.45
GTGTAAATTG | 0.956
AAATCGCTTG | 0.994
GGATGCTAAC | 1.16
CGCTATCTGA | 1.03
AATGCACCCA | 1.04
TATTAGTTG | 1.01
AATTGTTCGG | 1.01
TCATCGAGTG | 1
CCTGGCGGGT | 1.62
CACTTATCGA | 1.06
ACCTCAATGA | 1.09
GTTTGGACAC | 1
TATAGGGCTT | 0.96
TTTCGTGTTA | 0.978
AGACTGGCCA | 0.977
ATAGTCCCCA | 1.23
CAGTCCCTCG | 1.01
TGATAGTTAT | 0.982
CGACGGGCTG | 1.08
